Data on 53 compounds can be found in ChEMBL document CHEMBL4888484, “Replenishing the malaria drug discovery pipeline: Screening and hit evaluation of the MMV Hit Generation Library 1 (HGL1) against asexual blood stage Plasmodium falciparum ,using a nano luciferase reporter read-out” (2022).

Among all 150,000 compounds or so, about 540 (0.36%) showed an effect of 50% or more. This is one part of the list.

As usually defined, the % Inhibition is the drop in the measured response relative to a control, in per cent.

The assay concerns Plasmodium falciparum. Briefly: Primary screen in NF54 nanoGlo assay, in single point, at 2uM, 72h; a lower Z score goes with more inhibition. Format: functional, Erythrocyte. The following applies: timepoint 72 hour.
For `Cc1nc[nH]c1CN1C[C@H]2CC[C@@H](C1)N(C(=O)CCc1cccnc1)C2`, the “% Inhibition” value is listed as 8% and the Z score is recorded as -1.68.
Taken in the same sequence, the figures for `O=C1CC[C@@]2(CCCO2)CCN1Cc1ccc(-c2ccccc2)cc1` were -3% and 0.62.
The like results for `CC(C)(CC(=O)O)CC(=O)N1C2CCC1CC(O)(Cc1ccc(F)cc1F)C2` (stereo unspecified) were, in that order, -1% and 0.18.
Taken in the same sequence, the figures for `Cc1noc2ncc(NC(=O)c3ccc([C@H]4CCCOC4)cc3)cc12` were -7% and 0.96.
As for `CCNc1ncc(C(=O)N(C)CCc2ncc(C)s2)s1`, the “% Inhibition” value is reported as -11% and the Z score worked out at 2.14.
The like results for `COCCn1c(=O)c(CNCc2ccccc2OC)cc2ccc(F)cc21` were, in that order, 0% and -0.03.
Taken in the same sequence, the figures for `CNC(=O)[C@@H]1C[C@@H](NCc2cccc(C(F)(F)F)c2)CN1CC(C)C` were 13% and -1.75.
The like results for `COc1ccc(-c2ccc(CNC(=O)N3CCNC(=O)C3)s2)cc1` were, in that order, 1% and -0.13.
Consider `CCOc1cc(CN2CCN3C(=O)N(CC)C(=O)[C@@H]3C2)ccc1OC`, for which the “% Inhibition” value is -17% and the Z score is recorded as 1.89.
The like results for `Cc1ccccc1Oc1nc(N(C)Cc2ccccc2)nc2c1CN(C(=O)c1ccccc1)CC2` were, in that order, 3% and -0.44.
Taken in the same sequence, the figures for `CCCCC(=O)Nc1ccc(NC(=O)C2(C)CCCC2)cc1Cl` were -21% and 2.35.
For `O=C(Nc1nncs1)[C@H]1CCCN(S(=O)(=O)c2ccc(F)c(Cl)c2)C1`, the “% Inhibition” value amounted to 10% and the Z score was -1.41.
Taken in the same sequence, the figures for `CCOc1ccc(CNC(=O)c2ccc(-c3c(-c4ccc(C)cc4)ncn3C3CCCC3)o2)cc1` were -6% and 0.96.
The like results for `COc1cccc(-c2nnc(NCc3ccc(C)o3)o2)c1OC` were, in that order, 33% and -3.67.
The like results for `C[C@@](CC(=O)O)(NC(=O)Cc1ccon1)c1ccc(F)cc1` were, in that order, -8% and 1.
As to `CC1CC(NC(=O)[C@H]2OC[C@H]3COCC[C@H]32)=NN1Cc1ccccc1` (stereo partly specified), the “% Inhibition” value turned out to be 0% and the Z score was -0.03.
Taken in the same sequence, the figures for `CCOC(=O)N1CCN(C(=O)[C@H]2CCCN(c3cc4c(nn3)CCC4)C2)CC1` were -1% and 0.16.
The like results for `Nc1noc(CCNC(=O)c2cnn(Cc3ccccc3)c2)n1` were, in that order, -10% and 1.08.
Taken in the same sequence, the figures for `Cc1sc2ncnc(NC[C@H](C)Cn3cccn3)c2c1C` were -17% and 2.24.
Turning to `C[C@@H](c1cccs1)N(C)C(=O)c1ccccc1-n1cnnc1`, the “% Inhibition” value is on record as -5% and the Z score is 0.89.
Taken in the same sequence, the figures for `CC(C)c1nc(C(=O)Nc2[nH]nc(C3CC3)c2C#N)cs1` were -25% and 3.79.
Turning to `Cc1csc(C(=O)N2CC[C@H](OC(=O)N(C)C)C2)c1Cl`, the “% Inhibition” value is recorded as -4% and the Z score worked out at 0.59.
Taken in the same sequence, the figures for `O=C1CN(C(=O)c2ccccc2)S(=O)(=O)c2ccccc21` were -32% and 3.8.
The like results for `Cc1nc(C(=O)N2CC3C(C2)C3(C)C)c(=O)[nH]c1C` (stereo unspecified) were, in that order, -11% and 2.02.
The like results for `CC(=O)N1CCN(C(=O)CC(=O)N2CCn3cccc3[C@H]2c2cccc(Cl)c2)CC1` were, in that order, 0% and 0.05.
In the case of `CCN(CC)C[C@H](O)COc1cc(CNC2(c3ccccc3)CC2)ccc1OC`, the “% Inhibition” value was -4% and the Z score is given as 0.58.
Taken in the same sequence, the figures for `CC(C)(C)NS(=O)(=O)c1ccc2c(c1)C(C)(C)CN2CC(=O)N1CCCC1` were -11% and 1.21.
Taken in the same sequence, the figures for `CC(=O)N1CCO[C@@H](Cn2ccnc2-c2ccc(-c3ccccc3Cl)o2)C1` were 11% and -2.11.
The like results for `CN(CCCOCc1ccccc1)c1ccc(C#N)nn1` were, in that order, -10% and 1.39.
Take `COc1ccc(S(=O)(=O)Nc2nc3ncccn3n2)cc1Cl`: the “% Inhibition” value is -1% and the Z score is listed as 0.09.
For the compound `Cc1ccc(NC(=O)NC2CCN(c3ccccc3C(=O)NCCN3CCCCC3)CC2)cc1`, the “% Inhibition” value was 1% and the Z score was -0.2.
Taken in the same sequence, the figures for `Cc1nn(C)c2nc(C(=O)Nc3ccc(C(F)(F)F)cc3)cc(C3CC3)c12` were 8% and -1.03.
For the compound `CC(C)(C)n1nnc(COc2ccc([C@@H]3CCC(=O)N3)cc2)n1`, the “% Inhibition” value is -3% and the Z score amounted to 0.44.
The like results for `N#Cc1ccc(F)c(CN2CCN(C(=O)CN3CCOCC3)CC2)c1` were, in that order, -18% and 2.37.
Taken in the same sequence, the figures for `c1ccc2nc(NCCc3nnc(C4CCOCC4)[nH]3)cnc2c1` were 7% and -0.77.
Taken in the same sequence, the figures for `O=C1CC[C@@]2(CCCN(c3ncnc4ccsc34)C2)CN1Cc1cccnc1` were 12% and -1.41.
`COc1cccc(C[C@@H]2CC[C@H](CN(C)C3CCN(C)CC3)O2)c1`: the “% Inhibition” value was -10% and the Z score amounted to 0.92.
The like results for `COc1ccccc1N1CCN(CN2C(=O)C(=O)c3ccccc32)CC1` were, in that order, -29% and 3.37.
Taken in the same sequence, the figures for `Cc1ccsc1C(=O)NC[C@H]1CCCO1` were -5% and 0.94.
The like results for `Cc1ccnc(N2CCC(Oc3cccc(C#N)c3)CC2)c1C#N` were, in that order, -1% and 0.15.
In the case of `CC(C)Cc1cc(NS(=O)(=O)c2cnn3ccccc23)[nH]n1`, the “% Inhibition” value came out at 5% and the Z score is -0.89.
The like results for `CN1CCC[C@@]2(CCN(C(=O)c3cn(C)c4ccccc34)C2)C1` were, in that order, -4% and 0.65.
`CN1CCC(N2CCOC[C@H]2c2nc(-c3cccc(Cl)c3)c[nH]2)CC1`: the “% Inhibition” value is 5% and the Z score is recorded as -0.69.
Taken in the same sequence, the figures for `Cc1nn(C)cc1Cn1ccnc1-c1ccc(-c2cc[nH]n2)s1` were -54% and 4.79.
Taken in the same sequence, the figures for `CCc1nc(C)c(-c2nc(C3CCOCC3)nn2-c2nc(C)c(C)s2)o1` were 0% and 0.04.
For the compound `CC(C)c1ccoc1C(=O)N1CCC[C@@H]1CC(=O)O`, the “% Inhibition” value is reported as 10% and the Z score is reported as -1.42.
On to `Cc1cnccc1CN(C)C(=O)c1cc(C)c(C)nc1O`, for which the “% Inhibition” value came out at 6% and the Z score is given as -0.86.
The like results for `CCCc1noc(CCCC(=O)N2CCCN(c3nc(C)ns3)CC2)n1` were, in that order, -5% and 0.99.
In the case of `Cc1cc2c(cc1S(=O)(=O)N1CCC[C@H]1C(=O)Nc1ccc(F)c(Cl)c1)OCC(=O)N2`, the “% Inhibition” value was 0% and the Z score is -0.05.
The like results for `CN1CCN(C(=O)c2cn3c4c(cccc4c2=O)CCC3)CC1` were, in that order, -10% and 1.67.
Taken in the same sequence, the figures for `C[C@H](Nc1cccc2c1OCCO2)c1cc(F)ccc1F` were -1% and 0.14.
The like results for `C=C(C)CN(CC)C(=O)c1cc(Cc2ccc(OC)cc2)no1` were, in that order, -8% and 1.5.
On to `O=C(NCC[C@H](O)C1CCOCC1)Nc1ccccc1`, for which the “% Inhibition” value was -17% and the Z score is given as 2.65.
